Data taken from the supplement of paper PMC10132074.
Each value is the number of isolates with that result; steps that no isolate showed are left empty. Clinical S. Paratyphi A isolates, EUCAST 2021: MIC by Sensititre broth microdilution (mg/L, higher = less susceptible) and pefloxacin 5 µg disc zone (mm, larger = more susceptible). Call: the source's susceptible or wild type [S] / resistant [R]; none for gatifloxacin. Most isolates are closely related and were not sequenced.

Columns and labels:
[1] = test system: Salmonella enterica serovar Paratyphi A with GyrA S83F (32 isolates); assay: Isolates counted by MIC; Sensititre broth microdilution, or disc diffusion on Mueller-Hinton agar, by EUCAST 2021.
[2] = test system: Salmonella enterica serovar Paratyphi A with GyrA not given (244 isolates); assay: as above
[3] = test system: Salmonella enterica serovar Paratyphi A with GyrA S83F (32 isolates); assay: Isolates counted by inhibition zone diameter, 5 µg disc; Sensititre broth microdilution, or disc diffusion on Mueller-Hinton agar, by EUCAST 2021.
[4] = test system: Salmonella enterica serovar Paratyphi A with GyrA not given (244 isolates); assay: as above
[5] = inhibition zone diameter: 12 mm
[6] = inhibition zone diameter: 13 mm
[7] = inhibition zone diameter: 14 mm
[8] = inhibition zone diameter: 15 mm
[9] = inhibition zone diameter: 16 mm
[10] = inhibition zone diameter: 19 mm

## CO/N=C(\C(=O)N[C@@H]1C(=O)N2C(C(=O)O)=C(CSc3nc(=O)c(O)nn3C)CS[C@H]12)c1csc(N)n1 [ceftriaxone]
[1]; MIC: ≤0.5 mg/L
  isolate count: 32 [S]
[2]; MIC: ≤0.5 mg/L
  isolate count: 244 [S]

## CC1(C)S[C@@H]2[C@H](NC(=O)[C@H](N)c3ccccc3)C(=O)N2[C@H]1C(=O)O [ampicillin]
[1]; MIC: ≤4 mg/L
  isolate count: 32 [S]
[2]; MIC: 8 mg/L
  isolate count: 1 [S]
[2]; MIC: ≤4 mg/L
  isolate count: 243 [S]

## CO/N=C(\C(=O)N[C@@H]1C(=O)N2C(C(=O)[O-])=C(C[N+]3(C)CCCC3)CS[C@H]12)c1csc(N)n1 [cefepime]
[1]; MIC: ≤1 mg/L
  isolate count: 32 [S]
[2]; MIC: 2 mg/L
  isolate count: 1 [S]
[2]; MIC: ≤1 mg/L
  isolate count: 243 [S]

## C[C@@H](O)[C@H]1C(=O)N2C(C(=O)O)=C(S[C@@H]3CN[C@H](C(=O)N(C)C)C3)[C@H](C)[C@H]12 [meropenem]
[1]; MIC: ≤0.06 mg/L
  isolate count: 32 [S]
[2]; MIC: 0.12 mg/L
  isolate count: 4 [S]
[2]; MIC: 0.25 mg/L
  isolate count: 1 [S]
[2]; MIC: ≤0.06 mg/L
  isolate count: 239 [S]

## CO/N=C(\C(=O)N[C@@H]1C(=O)N2C(C(=O)O)=C(COC(C)=O)CS[C@H]12)c1csc(N)n1 [cefotaxime]
[1]; MIC: ≤0.5 mg/L
  isolate count: 32 [S]
[2]; MIC: 1 mg/L
  isolate count: 1 [S]
[2]; MIC: ≤0.5 mg/L
  isolate count: 243 [S]

## O=C(N[C@H](CO)[C@H](O)c1ccc([N+](=O)[O-])cc1)C(Cl)Cl [chloramphenicol]
[1]; MIC: ≤8 mg/L
  isolate count: 32 [S]
[2]; MIC: 16 mg/L
  isolate count: 33 [R]
[2]; MIC: ≤8 mg/L
  isolate count: 211 [S]

## CC(C)(O/N=C(\C(=O)N[C@@H]1C(=O)N2C(C(=O)[O-])=C(C[n+]3ccccc3)CS[C@H]12)c1csc(N)n1)C(=O)O [ceftazidime]
[1]; MIC: ≤0.5 mg/L
  isolate count: 32 [S]
[2]; MIC: 1 mg/L
  isolate count: 4 [S]
[2]; MIC: ≤0.5 mg/L
  isolate count: 240 [S]

## C=CC1=C(C(=O)O)N2C(=O)[C@@H](NC(=O)/C(=N\OCC(=O)O)c3csc(N)n3)[C@H]2SC1 [cefixime]
[1]; MIC: ≤0.5 mg/L
  isolate count: 32 [S]
[2]; MIC: 1 mg/L
  isolate count: 6 [S]
[2]; MIC: ≤0.5 mg/L
  isolate count: 238 [S]

## O=C(O)c1cn(C2CC2)c2cc(N3CCNCC3)c(F)cc2c1=O [ciprofloxacin]
[1]; MIC: 0.5 mg/L
  isolate count: 7 [R]
[1]; MIC: 1 mg/L
  isolate count: 25 [R]
[2]; MIC: 0.25 mg/L
  isolate count: 7 [R]
[2]; MIC: 0.5 mg/L
  isolate count: 153 [R]
[2]; MIC: 1 mg/L
  isolate count: 81 [R]
[2]; MIC: 4 mg/L
  isolate count: 1 [R]
[2]; MIC: ≤0.03 mg/L
  isolate count: 2 [S]

## CCn1cc(C(=O)O)c(=O)c2cc(F)c(N3CCN(C)CC3)cc21 [pefloxacin]
[3]; [5]
  isolate count: 2 [R]
[3]; [6]
  isolate count: 10 [R]
[3]; [7]
  isolate count: 9 [R]
[3]; [8]
  isolate count: 6 [R]
[3]; [9]
  isolate count: 4 [R]
[3]; [10]
  isolate count: 1 [R]
[4]; inhibition zone diameter: 10 mm
  isolate count: 5 [R]
[4]; inhibition zone diameter: 11 mm
  isolate count: 19 [R]
[4]; [5]
  isolate count: 99 [R]
[4]; [6]
  isolate count: 63 [R]
[4]; [7]
  isolate count: 34 [R]
[4]; [8]
  isolate count: 13 [R]
[4]; [9]
  isolate count: 2 [R]
[4]; inhibition zone diameter: 17 mm
  isolate count: 4 [R]
[4]; inhibition zone diameter: 18 mm
  isolate count: 2 [R]
[4]; [10]
  isolate count: 1 [R]
[4]; inhibition zone diameter: 28 mm
  isolate count: 2 [S]

## COc1c(N2CCNC(C)C2)c(F)cc2c(=O)c(C(=O)O)cn(C3CC3)c12 (centres undefined) [gatifloxacin]
[1]; MIC: 0.5 mg/L
  isolate count: 32
[2]; MIC: 0.06 mg/L
  isolate count: 2
[2]; MIC: 0.25 mg/L
  isolate count: 6
[2]; MIC: 0.5 mg/L
  isolate count: 218
[2]; MIC: 1 mg/L
  isolate count: 16
[2]; MIC: 2 mg/L
  isolate count: 2

## CC[C@H]1OC(=O)[C@H](C)[C@@H](O[C@H]2C[C@@](C)(OC)[C@@H](O)[C@H](C)O2)[C@H](C)[C@@H](O[C@@H]2O[C@H](C)C[C@H](N(C)C)[C@H]2O)[C@](C)(O)C[C@@H](C)CN(C)[C@H](C)[C@@H](O)[C@]1(C)O [azithromycin]
[1]; MIC: 8 mg/L
  isolate count: 9 [S]
[1]; MIC: 16 mg/L
  isolate count: 23 [S]
[2]; MIC: 8 mg/L
  isolate count: 81 [S]
[2]; MIC: 16 mg/L
  isolate count: 157 [S]
[2]; MIC: 32 mg/L
  isolate count: 6
